The chains are these.
T1: RBFOX1 RRM RbFoxmut (Fox-RRM*) (Homo sapiens, UniProt Q9NWB1 109-208, R118D;E147R;N151S;E152T)
T1 sequence: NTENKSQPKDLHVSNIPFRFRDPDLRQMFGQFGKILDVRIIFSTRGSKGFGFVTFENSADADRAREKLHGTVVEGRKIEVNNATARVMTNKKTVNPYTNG

B1: CCGUGGU (DNA:RNA)
RNA: GGGAGACCGGAAUUCAGAUUGUCCCCGUGGUUUAAAUCCCGUCGUAGCCACCA
DNA 1: CAATCTGAATTCCGGTCTCCC
DNA 2: TGGTGGCTACGACGGGATT
B2: CAAGCCC (DNA:RNA)
RNA: B1 RNA with C26A, G27A, U28G, G29C, G30C, U31C
DNA 1: CAATCTGAATTCCGGTCTCCC
DNA 2: TGGTGGCTACGACGGGATT
B3: GCUCGCA (DNA:RNA)
RNA: B1 RNA with C25G, G27U, U28C, G30C, U31A
DNA 1: CAATCTGAATTCCGGTCTCCC
DNA 2: TGGTGGCTACGACGGGATT
B4: AGUGUAU (DNA:RNA)
RNA: B1 RNA with C25A, C26G, G27U, U28G, G29U, G30A
DNA 1: CAATCTGAATTCCGGTCTCCC
DNA 2: TGGTGGCTACGACGGGATT
B5: UUGUAAC (DNA:RNA)
RNA: B1 RNA with C25U, C26U, G29A, G30A, U31C
DNA 1: CAATCTGAATTCCGGTCTCCC
DNA 2: TGGTGGCTACGACGGGATT
B6: UUCGAAU (DNA:RNA)
RNA: B1 RNA with C25U, C26U, G27C, U28G, G29A, G30A
DNA 1: CAATCTGAATTCCGGTCTCCC
DNA 2: TGGTGGCTACGACGGGATT
B7: UGUGUAC (DNA:RNA)
RNA: GGGAGACCGGAAUUCAGAUUGUCCUGUGUACUUAAAUCCCGUCGUAGCCACCA
DNA 1: CAATCTGAATTCCGGTCTCCC
DNA 2: TGGTGGCTACGACGGGATT
B8: UACAGAA (DNA:RNA)
RNA: B7 RNA with G26A, U27C, G28A, U29G, C31A
DNA 1: CAATCTGAATTCCGGTCTCCC
DNA 2: TGGTGGCTACGACGGGATT
B9: UAUAGAG (DNA:RNA)
RNA: B7 RNA with G26A, G28A, U29G, C31G
DNA 1: CAATCTGAATTCCGGTCTCCC
DNA 2: TGGTGGCTACGACGGGATT
B10: UAAAAGU (DNA:RNA)
RNA: B1 RNA with C25U, C26A, G27A, U28A, G29A
DNA 1: CAATCTGAATTCCGGTCTCCC
DNA 2: TGGTGGCTACGACGGGATT
B11: UCGCCGC (DNA:RNA)
RNA: B1 RNA with C25U, U28C, G29C, U31C
DNA 1: CAATCTGAATTCCGGTCTCCC
DNA 2: TGGTGGCTACGACGGGATT
B12: CGUCGUU (DNA:RNA)
RNA: B1 RNA with C26G, G27U, U28C, G30U
DNA 1: CAATCTGAATTCCGGTCTCCC
DNA 2: TGGTGGCTACGACGGGATT
B13: UGAGAGC (DNA:RNA)
RNA: B7 RNA with U27A, U29A, A30G
DNA 1: CAATCTGAATTCCGGTCTCCC
DNA 2: TGGTGGCTACGACGGGATT
B14: UACGGCU (DNA:RNA)
RNA: B1 RNA with C25U, C26A, G27C, U28G, G30C
DNA 1: CAATCTGAATTCCGGTCTCCC
DNA 2: TGGTGGCTACGACGGGATT
B15: UGGGGAA (DNA:RNA)
RNA: B7 RNA with U27G, U29G, C31A
DNA 1: CAATCTGAATTCCGGTCTCCC
DNA 2: TGGTGGCTACGACGGGATT
B16: AACUUUA (DNA:RNA)
RNA: B1 RNA with C25A, C26A, G27C, G29U, G30U, U31A
DNA 1: CAATCTGAATTCCGGTCTCCC
DNA 2: TGGTGGCTACGACGGGATT
B17: UCGCUUU (DNA:RNA)
RNA: B1 RNA with C25U, U28C, G29U, G30U
DNA 1: CAATCTGAATTCCGGTCTCCC
DNA 2: TGGTGGCTACGACGGGATT
B18: UAGCGCA (DNA:RNA)
RNA: B1 RNA with C25U, C26A, U28C, G30C, U31A
DNA 1: CAATCTGAATTCCGGTCTCCC
DNA 2: TGGTGGCTACGACGGGATT
B19: ACACGCC (DNA:RNA)
RNA: B1 RNA with C25A, G27A, U28C, G30C, U31C
DNA 1: CAATCTGAATTCCGGTCTCCC
DNA 2: TGGTGGCTACGACGGGATT
B20: AGUUCGU (DNA:RNA)
RNA: B1 RNA with C25A, C26G, G27U, G29C
DNA 1: CAATCTGAATTCCGGTCTCCC
DNA 2: TGGTGGCTACGACGGGATT
B21: AGAAUCA (DNA:RNA)
RNA: B7 RNA with U25A, U27A, G28A, A30C, C31A
DNA 1: CAATCTGAATTCCGGTCTCCC
DNA 2: TGGTGGCTACGACGGGATT
B22: AUUGAUA (DNA:RNA)
RNA: B7 RNA with U25A, G26U, U29A, A30U, C31A
DNA 1: CAATCTGAATTCCGGTCTCCC
DNA 2: TGGTGGCTACGACGGGATT
B23: CAUCGGC (DNA:RNA)
RNA: B1 RNA with C26A, G27U, U28C, U31C
DNA 1: CAATCTGAATTCCGGTCTCCC
DNA 2: TGGTGGCTACGACGGGATT
B24: CGCGUGC (DNA:RNA)
RNA: B7 RNA with U25C, U27C, A30G
DNA 1: CAATCTGAATTCCGGTCTCCC
DNA 2: TGGTGGCTACGACGGGATT
B25: UCAGAAG (DNA:RNA)
RNA: B7 RNA with G26C, U27A, U29A, C31G
DNA 1: CAATCTGAATTCCGGTCTCCC
DNA 2: TGGTGGCTACGACGGGATT
B26: UUGCGAG (DNA:RNA)
RNA: B1 RNA with C25U, C26U, U28C, G30A, U31G
DNA 1: CAATCTGAATTCCGGTCTCCC
DNA 2: TGGTGGCTACGACGGGATT
B27: AAUAAUU (DNA:RNA)
RNA: B1 RNA with C25A, C26A, G27U, U28A, G29A, G30U
DNA 1: CAATCTGAATTCCGGTCTCCC
DNA 2: TGGTGGCTACGACGGGATT
B28: CCUGAAU (DNA:RNA)
RNA: B1 RNA with G27U, U28G, G29A, G30A
DNA 1: CAATCTGAATTCCGGTCTCCC
DNA 2: TGGTGGCTACGACGGGATT
B29: AAUGCUU (DNA:RNA)
RNA: B7 RNA with U25A, G26A, U29C, A30U, C31U
DNA 1: CAATCTGAATTCCGGTCTCCC
DNA 2: TGGTGGCTACGACGGGATT
B30: AUAGAGA (DNA:RNA)
RNA: B1 RNA with C25A, C26U, G27A, U28G, G29A, U31A
DNA 1: CAATCTGAATTCCGGTCTCCC
DNA 2: TGGTGGCTACGACGGGATT
B31: AGGACGA (DNA:RNA)
RNA: B1 RNA with C25A, C26G, U28A, G29C, U31A
DNA 1: CAATCTGAATTCCGGTCTCCC
DNA 2: TGGTGGCTACGACGGGATT

Where a chain is given by its changes, count along the chain named. This is one part of the list.

In this experiment the target is T1, RBFOX1 RRM RbFoxmut (Fox-RRM*). Nature of the experiment: EMSA; HiTS-Eq, 1 nM pool, 10 min; buffer printed only for the single-RNA assays: 10 mM Tris pH 7.5, 150 mM NaCl, 3.4 mM EDTA, 0.001% NP-40, 30 C. The settings on record: tags: His6 N-terminal (pET28a); label: 5' 32P. The method in brief:
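These values rest on relative association constants, computed from read-count changes of each RNA species versus the control reaction and normalised to the cognate motif. Reads came from free RNA recovered by 8% native PAGE after purified RbFox RRM (wild type or mutant) at increasing concentrations was equilibrated for 10 min in 50 µL with 1 nM of a 5′-radiolabelled pool with 7 randomized nucleotides and DNA-annealed flanks.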
(In general: In EMSA bound probe runs differently from free probe, usually more slowly.)
For the molecule B1, the binding signal is 0.1 KA relative to UGCAUGU.
The figure for B2 is 0.083 KA relative to UGCAUGU.
The figure for B3 is 0.123 KA relative to UGCAUGU; for B4 it is 0.162 KA relative to UGCAUGU.
With B5, the binding signal was 0.115 KA relative to UGCAUGU.
Consider B6, for which the binding signal was 0.103 KA relative to UGCAUGU.
On to B7, for which the binding signal is 0.129 KA relative to UGCAUGU.
In the case of B8, the binding signal was 0.1 KA relative to UGCAUGU.
B9: the binding signal is 0.117 KA relative to UGCAUGU.
Turning to B10, the binding signal is 0.058 KA relative to UGCAUGU.
For B11, the binding signal was 0.0954 KA relative to UGCAUGU.
Regarding B12, the binding signal is 0.108 KA relative to UGCAUGU.
For B13, the binding signal was 0.0841 KA relative to UGCAUGU.
Turning to B14, the binding signal is 0.101 KA relative to UGCAUGU.
With B15, the binding signal is 0.142 KA relative to UGCAUGU.
Turning to B16, the binding signal was 0.112 KA relative to UGCAUGU.
For B17, the binding signal was 0.0726 KA relative to UGCAUGU.
Take B18: the binding signal is 0.124 KA relative to UGCAUGU.
In the case of B19, the binding signal is 0.109 KA relative to UGCAUGU.
Consider B20, for which the binding signal was 0.14 KA relative to UGCAUGU.
Take B21: the binding signal is 0.203 KA relative to UGCAUGU.
The figure for B22 is 0.114 KA relative to UGCAUGU; for B23 it is 0.0843 KA relative to UGCAUGU; for B24 it is 0.124 KA relative to UGCAUGU.
For the molecule B25, the binding signal is 0.106 KA relative to UGCAUGU.
Regarding B26, the binding signal was 0.15 KA relative to UGCAUGU.
Regarding B27, the binding signal is 0.0519 KA relative to UGCAUGU.
The figure for B28 is 0.0593 KA relative to UGCAUGU; for B29 it is 0.105 KA relative to UGCAUGU; for B30 it is 0.0967 KA relative to UGCAUGU.
Regarding B31, the binding signal is 0.0606 KA relative to UGCAUGU.

Source of the values: publication PMC9911399, “Two distinct binding modes provide the RNA-binding protein RbFox with extraordinary sequence specificity”.
